{"source": "the supplement of paper PMC8728848", "binders": {"B1": {"name": "EULS2 M4 (Oryza sativa) (protein)", "chain": "MVYCRANPNYAMTARNGAVVLAPANPKDEYQHWIKDMRWSTSIKDEEGYPAFALVNKATGQAIKHSLGQSHPVRLVPYNPEVMDESVLWTESRDVGNGFRCIRMVNNIYLNFDAFHGDKYHGGVRDGTDIVLWKWCEGDSLRWKIQPYYILEQKLISEEDLNSAVDHHHHHH"}}, "assay_in_all_cases": "glycan array binding signal (z-score within array); higher = stronger binding", "conditions_in_all_cases": "glycan notation: IUPAC condensed, linker removed", "key": {"[1]": {"molecular_target": "Fuc(a1-3)GlcNAc", "procedure,_shortened": "(§1)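 The binding signal is a Z-score computed within each array. Data were drawn from 3228 arrays in the Consortium for Functional Glycomics database, restricted to those with a known protein sequence. Scores were averaged over arrays of the same protein sequence at different concentrations or buffers, and over linkers, and negative values can be taken as non-binding.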"}, "[2]": {"molecular_target": "Fuc(a1-3)[Gal(b1-4)]Glc6S", "procedure,_shortened": "as §1"}, "[3]": {"molecular_target": "Fuc(a1-3)[Gal(b1-4)]GlcNAc", "procedure,_shortened": "as §1"}, "[4]": {"molecular_target": "Fuc(a1-3)[Gal(b1-4)]GlcNAc(b1-2)Man", "procedure,_shortened": "as §1"}, "[5]": {"molecular_target": "Fuc(a1-3)[Gal(b1-4)]GlcNAc(b1-2)Man(a1-3)[Fuc(a1-3)[Gal(b1-4)]GlcNAc(b1-2)Man(a1-6)]Man(b1-4)GlcNAc(b1-4)GlcNAc", "procedure,_shortened": "as §1"}, "[6]": {"molecular_target": "Fuc(a1-3)[Gal(b1-4)]GlcNAc(b1-2)Man(a1-3)[Fuc(a1-3)[Gal(b1-4)]GlcNAc(b1-2)Man(a1-6)]Man(b1-4)GlcNAc(b1-4)[Fuc(a1-6)]GlcNAc", "procedure,_shortened": "as §1"}, "[7]": {"molecular_target": "Fuc(a1-3)[Gal(b1-4)]GlcNAc(b1-3)Gal(b1-3)[Fuc(a1-4)]GlcNAc", "procedure,_shortened": "as §1"}, "[8]": {"molecular_target": "Fuc(a1-3)[Gal(b1-4)]GlcNAc(b1-3)Gal(b1-4)[Fuc(a1-3)]GlcNAc", "procedure,_shortened": "as §1"}, "[9]": {"molecular_target": "Fuc(a1-3)[Gal(b1-4)]GlcNAc(b1-3)Gal(b1-4)[Fuc(a1-3)]GlcNAc(b1-3)Gal(b1-4)[Fuc(a1-3)]GlcNAc", "procedure,_shortened": "as §1"}, "[10]": {"molecular_target": "Fuc(a1-3)[Gal(b1-4)]GlcNAc(b1-3)GalNAc", "procedure,_shortened": "as §1"}, "[11]": {"molecular_target": "Fuc(a1-3)[Gal(b1-4)]GlcNAc(b1-6)GalNAc", "procedure,_shortened": "as §1"}, "[12]": {"molecular_target": "Fuc(a1-3)[Gal(b1-4)]GlcNAc(b1-6)[Gal(b1-3)GlcNAc(b1-3)]Gal(b1-4)Glc", "procedure,_shortened": "as §1"}, "[13]": {"molecular_target": "Fuc(a1-3)[Gal(b1-4)]GlcNAc6S", "procedure,_shortened": "as §1"}, "[14]": {"molecular_target": "Fuc(a1-3)[Gal3S(b1-4)]Glc", "procedure,_shortened": "as §1"}, "[15]": {"molecular_target": "Fuc(a1-3)[Gal3S(b1-4)]GlcNAc", "procedure,_shortened": "as §1"}, "[16]": {"molecular_target": "Fuc(a1-3)[Gal3S(b1-4)]GlcNAc6S", "procedure,_shortened": "as §1"}, "[17]": {"molecular_target": "Fuc(a1-3)[GalNAc(b1-4)]GlcNAc", "procedure,_shortened": "as §1"}, "[18]": {"molecular_target": "Fuc(a1-3)[GalNAc(b1-4)]GlcNAc6S", "procedure,_shortened": "as §1"}, "[19]": {"molecular_target": "Fuc(a1-4)GlcNAc", "procedure,_shortened": "as §1"}, "[20]": {"molecular_target": "Fuc(b1-3)GlcNAc", "procedure,_shortened": "as §1"}, "[21]": {"molecular_target": "Gal(a1-2)Gal", "procedure,_shortened": "as §1"}, "[22]": {"molecular_target": "Gal(a1-3)Gal", "procedure,_shortened": "as §1"}, "[23]": {"molecular_target": "Gal(a1-3)Gal(b1-3)GlcNAc", "procedure,_shortened": "as §1"}, "[24]": {"molecular_target": "Gal(a1-3)Gal(b1-3)GlcNAc(b1-2)Man", "procedure,_shortened": "as §1"}, "[25]": {"molecular_target": "Gal(a1-3)Gal(b1-3)GlcNAc(b1-2)Man(a1-3)[Gal(a1-3)Gal(b1-3)GlcNAc(b1-2)Man(a1-6)]Man(b1-4)GlcNAc(b1-4)GlcNAc", "procedure,_shortened": "as §1"}, "[26]": {"molecular_target": "Gal(a1-3)Gal(b1-3)GlcNAc(b1-3)GalNAc", "procedure,_shortened": "as §1"}, "[27]": {"molecular_target": "Gal(a1-3)Gal(b1-3)GlcNAc(b1-6)GalNAc", "procedure,_shortened": "as §1"}, "[28]": {"molecular_target": "Gal(a1-3)Gal(b1-3)[Fuc(a1-4)]GlcNAc(b1-2)Man(a1-3)[Gal(a1-3)Gal(b1-3)[Fuc(a1-4)]GlcNAc(b1-2)Man(a1-6)]Man(b1-4)GlcNAc(b1-4)GlcNAc", "procedure,_shortened": "as §1"}, "[29]": {"molecular_target": "Gal(a1-3)Gal(b1-4)Glc", "procedure,_shortened": "as §1"}, "[30]": {"molecular_target": "Gal(a1-3)Gal(b1-4)GlcNAc", "procedure,_shortened": "as §1"}, "[31]": {"molecular_target": "Gal(a1-3)Gal(b1-4)GlcNAc(b1-2)Man", "procedure,_shortened": "as §1"}, "[32]": {"molecular_target": "Gal(a1-3)Gal(b1-4)GlcNAc(b1-2)Man(a1-3)[Gal(a1-3)Gal(b1-4)GlcNAc(b1-2)Man(a1-6)]Man(b1-4)GlcNAc(b1-4)GlcNAc", "procedure,_shortened": "as §1"}, "[33]": {"molecular_target": "Gal(a1-3)Gal(b1-4)GlcNAc(b1-3)GalNAc", "procedure,_shortened": "as §1"}, "[34]": {"molecular_target": "Gal(a1-3)Gal(b1-4)GlcNAc(b1-6)GalNAc", "procedure,_shortened": "as §1"}, "[35]": {"molecular_target": "Gal(a1-3)Gal(b1-4)[Fuc(a1-3)]GlcNAc", "procedure,_shortened": "as §1"}, "[36]": {"molecular_target": "Gal(a1-3)Gal(b1-4)[Fuc(a1-3)]GlcNAc(b1-2)Man(a1-3)[Gal(a1-3)Gal(b1-4)[Fuc(a1-3)]GlcNAc(b1-2)Man(a1-6)]Man(b1-4)GlcNAc(b1-4)GlcNAc", "procedure,_shortened": "as §1"}, "[37]": {"molecular_target": "Gal(a1-3)GalNAc", "procedure,_shortened": "as §1"}, "[38]": {"molecular_target": "Gal(a1-3)[Gal(a1-4)]Gal(b1-4)GlcNAc", "procedure,_shortened": "as §1"}, "[39]": {"molecular_target": "Gal(a1-4)Gal(b1-3)GlcNAc(b1-2)Man(a1-3)[Gal(a1-4)Gal(b1-3)GlcNAc(b1-2)Man(a1-6)]Man(b1-4)GlcNAc(b1-4)GlcNAc", "procedure,_shortened": "as §1"}, "[40]": {"molecular_target": "Gal(a1-4)Gal(b1-4)Glc", "procedure,_shortened": "as §1"}, "[41]": {"molecular_target": "Gal(a1-4)Gal(b1-4)GlcNAc", "procedure,_shortened": "as §1"}, "[42]": {"molecular_target": "Gal(a1-4)Gal(b1-4)GlcNAc(b1-2)Man(a1-3)[Gal(a1-4)Gal(b1-4)GlcNAc(b1-2)Man(a1-6)]Man(b1-4)GlcNAc(b1-4)GlcNAc", "procedure,_shortened": "as §1"}, "[43]": {"molecular_target": "Gal(a1-4)Gal(b1-4)GlcNAc(b1-3)Gal(b1-4)Glc", "procedure,_shortened": "as §1"}, "[44]": {"molecular_target": "Gal(a1-4)GlcNAc", "procedure,_shortened": "as §1"}, "[45]": {"molecular_target": "Gal(a1-6)Glc", "procedure,_shortened": "as §1"}}, "note": "The list shows a part of the results.", "data": [{"binder": "B1", "values": [{"measurement": "glycan array binding signal (z-score)", "setting": "[1]", "value": 0.165}, {"measurement": "glycan array binding signal (z-score)", "setting": "[2]", "value": -0.327}, {"measurement": "glycan array binding signal (z-score)", "setting": "[3]", "value": -0.333}, {"measurement": "glycan array binding signal (z-score)", "setting": "[4]", "value": 0.228}, {"measurement": "glycan array binding signal (z-score)", "setting": "[5]", "value": -0.194}, {"measurement": "glycan array binding signal (z-score)", "setting": "[6]", "value": -0.788}, {"measurement": "glycan array binding signal (z-score)", "setting": "[7]", "value": -0.522}, {"measurement": "glycan array binding signal (z-score)", "setting": "[8]", "value": -0.226}, {"measurement": "glycan array binding signal (z-score)", "setting": "[9]", "value": -0.459}, {"measurement": "glycan array binding signal (z-score)", "setting": "[10]", "value": -0.275}, {"measurement": "glycan array binding signal (z-score)", "setting": "[11]", "value": -0.02}, {"measurement": "glycan array binding signal (z-score)", "setting": "[12]", "value": -0.55}, {"measurement": "glycan array binding signal (z-score)", "setting": "[13]", "value": -0.424}, {"measurement": "glycan array binding signal (z-score)", "setting": "[14]", "value": 0.66}, {"measurement": "glycan array binding signal (z-score)", "setting": "[15]", "value": -0.358}, {"measurement": "glycan array binding signal (z-score)", "setting": "[16]", "value": -0.356}, {"measurement": "glycan array binding signal (z-score)", "setting": "[17]", "value": -0.362}, {"measurement": "glycan array binding signal (z-score)", "setting": "[18]", "value": -0.374}, {"measurement": "glycan array binding signal (z-score)", "setting": "[19]", "value": 2.03}, {"measurement": "glycan array binding signal (z-score)", "setting": "[20]", "value": -0.573}, {"measurement": "glycan array binding signal (z-score)", "setting": "[21]", "value": 0.013}, {"measurement": "glycan array binding signal (z-score)", "setting": "[22]", "value": -0.125}, {"measurement": "glycan array binding signal (z-score)", "setting": "[23]", "value": 0.88}, {"measurement": "glycan array binding signal (z-score)", "setting": "[24]", "value": -0.616}, {"measurement": "glycan array binding signal (z-score)", "setting": "[25]", "value": 0.027}, {"measurement": "glycan array binding signal (z-score)", "setting": "[26]", "value": -0.22}, {"measurement": "glycan array binding signal (z-score)", "setting": "[27]", "value": -0.104}, {"measurement": "glycan array binding signal (z-score)", "setting": "[28]", "value": -0.462}, {"measurement": "glycan array binding signal (z-score)", "setting": "[29]", "value": -0.492}, {"measurement": "glycan array binding signal (z-score)", "setting": "[30]", "value": -0.248}, {"measurement": "glycan array binding signal (z-score)", "setting": "[31]", "value": -0.464}, {"measurement": "glycan array binding signal (z-score)", "setting": "[32]", "value": -0.327}, {"measurement": "glycan array binding signal (z-score)", "setting": "[33]", "value": -0.395}, {"measurement": "glycan array binding signal (z-score)", "setting": "[34]", "value": 0.31}, {"measurement": "glycan array binding signal (z-score)", "setting": "[35]", "value": 0.531}, {"measurement": "glycan array binding signal (z-score)", "setting": "[36]", "value": -0.609}, {"measurement": "glycan array binding signal (z-score)", "setting": "[37]", "value": 0.366}, {"measurement": "glycan array binding signal (z-score)", "setting": "[38]", "value": 7}, {"measurement": "glycan array binding signal (z-score)", "setting": "[39]", "value": -0.321}, {"measurement": "glycan array binding signal (z-score)", "setting": "[40]", "value": -0.542}, {"measurement": "glycan array binding signal (z-score)", "setting": "[41]", "value": -0.352}, {"measurement": "glycan array binding signal (z-score)", "setting": "[42]", "value": 0.456}, {"measurement": "glycan array binding signal (z-score)", "setting": "[43]", "value": -0.452}, {"measurement": "glycan array binding signal (z-score)", "setting": "[44]", "value": -0.293}, {"measurement": "glycan array binding signal (z-score)", "setting": "[45]", "value": 0.151}]}]}
